Measurements from paper PMC2833206.
Where a chain is given by its changes, count along the chain named. No constants are given. Whether binding was seen depends on the method and setting. Binding seen in cells or lysates may run through a third protein. Some binding calls cover weakened binding; strength is not graded here. For some assays here: Sequences can lack the tags named with a protein.

Amino acid sequences for entries named in this document (tags omitted). A change or cut given only in a name is not applied to a line headed by its entry.
UniProt P26651: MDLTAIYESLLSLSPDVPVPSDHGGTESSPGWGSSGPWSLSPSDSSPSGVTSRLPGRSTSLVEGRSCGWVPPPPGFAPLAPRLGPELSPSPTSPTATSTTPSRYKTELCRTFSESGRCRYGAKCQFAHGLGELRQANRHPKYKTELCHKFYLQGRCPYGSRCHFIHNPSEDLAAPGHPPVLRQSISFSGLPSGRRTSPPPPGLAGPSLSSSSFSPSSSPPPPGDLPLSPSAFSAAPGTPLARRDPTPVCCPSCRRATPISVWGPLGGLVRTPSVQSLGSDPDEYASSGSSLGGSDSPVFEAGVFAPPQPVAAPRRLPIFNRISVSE
UniProt Q9Y6R4: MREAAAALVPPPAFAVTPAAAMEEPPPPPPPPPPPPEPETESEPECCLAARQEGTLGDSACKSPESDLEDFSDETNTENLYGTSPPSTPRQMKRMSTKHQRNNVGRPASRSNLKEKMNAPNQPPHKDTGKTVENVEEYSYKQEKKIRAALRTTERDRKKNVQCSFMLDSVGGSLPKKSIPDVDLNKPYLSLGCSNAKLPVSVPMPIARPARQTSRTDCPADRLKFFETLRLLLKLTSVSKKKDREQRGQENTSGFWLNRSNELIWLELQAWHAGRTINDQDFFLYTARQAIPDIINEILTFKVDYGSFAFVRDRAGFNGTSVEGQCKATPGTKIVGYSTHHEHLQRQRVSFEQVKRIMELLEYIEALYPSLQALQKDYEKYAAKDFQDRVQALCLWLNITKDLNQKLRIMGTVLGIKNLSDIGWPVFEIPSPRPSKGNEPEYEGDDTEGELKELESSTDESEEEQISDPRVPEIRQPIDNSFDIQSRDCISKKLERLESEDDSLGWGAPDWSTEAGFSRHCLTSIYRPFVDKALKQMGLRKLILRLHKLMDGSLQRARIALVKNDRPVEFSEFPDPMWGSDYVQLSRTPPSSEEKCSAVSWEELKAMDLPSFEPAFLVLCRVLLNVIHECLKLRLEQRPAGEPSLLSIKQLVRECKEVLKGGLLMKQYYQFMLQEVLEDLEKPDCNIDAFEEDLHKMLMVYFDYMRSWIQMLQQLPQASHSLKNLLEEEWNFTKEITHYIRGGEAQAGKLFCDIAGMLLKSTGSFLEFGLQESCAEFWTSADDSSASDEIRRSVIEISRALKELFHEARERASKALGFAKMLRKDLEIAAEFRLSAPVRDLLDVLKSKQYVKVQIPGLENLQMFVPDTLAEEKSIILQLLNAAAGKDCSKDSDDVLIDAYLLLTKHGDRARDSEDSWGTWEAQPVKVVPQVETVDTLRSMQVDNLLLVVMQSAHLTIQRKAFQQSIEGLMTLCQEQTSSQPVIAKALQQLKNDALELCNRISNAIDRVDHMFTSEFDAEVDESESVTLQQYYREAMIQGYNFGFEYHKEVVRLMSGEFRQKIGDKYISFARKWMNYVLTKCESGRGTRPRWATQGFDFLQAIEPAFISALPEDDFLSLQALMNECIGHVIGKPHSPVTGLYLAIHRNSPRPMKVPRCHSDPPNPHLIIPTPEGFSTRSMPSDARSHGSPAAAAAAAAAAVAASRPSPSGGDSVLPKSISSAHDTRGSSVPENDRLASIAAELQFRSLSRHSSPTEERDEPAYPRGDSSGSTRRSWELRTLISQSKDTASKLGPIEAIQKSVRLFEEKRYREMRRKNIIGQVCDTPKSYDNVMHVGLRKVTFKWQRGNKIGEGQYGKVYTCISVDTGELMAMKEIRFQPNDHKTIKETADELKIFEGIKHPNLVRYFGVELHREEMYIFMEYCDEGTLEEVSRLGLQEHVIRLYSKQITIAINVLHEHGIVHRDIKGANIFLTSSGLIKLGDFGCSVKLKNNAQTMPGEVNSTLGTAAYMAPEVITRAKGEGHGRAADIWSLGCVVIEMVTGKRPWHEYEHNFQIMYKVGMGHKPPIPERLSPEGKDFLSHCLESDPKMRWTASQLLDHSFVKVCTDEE

Legend:
Test in all cases: co-IP; HEK 293 cells transfected with HA- and Flag-tagged constructs (or endogenous partner); 1 mg protein of RIPA extract, treated with RNase; anti-FLAG or anti-HA monoclonal antibody overnight at 4 °C, protein A Sepharose; western blot
HA-hTTP/P309V (human) = HA-hTTP/P309V (human) (UniProt P26651)
HA-mTTP/T302P (mouse) = target: T1, HA-mTTP/T302P (mouse) (UniProt P22893)
T1 sequence: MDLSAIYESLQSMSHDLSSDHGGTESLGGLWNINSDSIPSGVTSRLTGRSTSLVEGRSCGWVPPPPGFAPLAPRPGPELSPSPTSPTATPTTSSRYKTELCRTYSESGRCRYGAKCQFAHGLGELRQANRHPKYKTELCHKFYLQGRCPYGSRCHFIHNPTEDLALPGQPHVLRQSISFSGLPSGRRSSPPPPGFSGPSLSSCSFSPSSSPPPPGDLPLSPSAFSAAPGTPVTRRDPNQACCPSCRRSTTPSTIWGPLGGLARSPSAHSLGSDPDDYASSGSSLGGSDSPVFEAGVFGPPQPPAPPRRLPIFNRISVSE

[1] = target: HA-tagged human tristetraprolin (HA-hTTP), full length (human) (UniProt P26651)
[2] = target: HA-tagged mitogen-activated protein kinase kinase kinase 4 (HA-MEKK4) (UniProt Q9Y6R4)
[3] = target: T2, HA-tagged mouse TTP (HA-mTTP), wild type (mouse) (UniProt P22893)
T2 sequence: T1 sequence with P302T

Question: Which results are given for “Flag-tagged human CIN85 (Flag-CIN85), full length (from UniProt Q96B97-1 1-665)”?
Answer: binding (HA-hTTP/P309V (human)): no binding; binding (HA-mTTP/T302P (mouse)): binds; binding [1]: binds; binding [2]: binds; binding [3]: no binding
